± gives the standard deviation of the averaged measurements. Some of the results follow.

The test system of the assay is PfAP2-LT AP2 domain (GST-tagged). Kind of assay: gcPBM binding intensity (ln(normalized median fluorescence intensity)); higher = stronger DNA binding. An outline of the steps:
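Binding intensity is defined as the maximum Masliner-normalised natural-log median intensity across replicate spots for either probe orientation. It was measured on an Agilent 4 × 180k array of primer-extended double-stranded 36-bp intergenic genomic probes and negative controls, to which GST-tagged P. falciparum DNA-binding domains made in E. coli were applied for 1 h in 1× PBS with 1% milk, 0.2 mg/ml BSA, 0.5% salmon testes DNA and 0.03% Triton X-100. Detection was by Alexa488 anti-GST antibody and scanning at 488 nm.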
As for “CACTTAACACAAGAGTGTACACATATATATATATAT [XGTACX_site686]”, the “gcPBM binding intensity (ln)” value came to 9.53 ± 0.33.
For “TTGTACGCAAAAAAAAAAAAAAAAAAATTAAAATTT [TGCATGCA_negctrl_site586]”, the “gcPBM binding intensity (ln)” value was 8.18 ± 0.45.
“TTTTTCTCTTTAAGGTGTACAATAATACAGTAACCA [XGTACX_site300]”: the “gcPBM binding intensity (ln)” value amounted to 8.46 ± 0.39.
In the case of “ATATTAGTAACACAGACACACAAAAAAAAAAAAAAA [CACACA_site2176]”, the “gcPBM binding intensity (ln)” value was 9.01 ± 0.59.
Under “AGGAAAATACCTTAATGTACATAGAAAAGTAACATT [XGTACX_site8011]” stands 8.88 ± 0.4; under “TTTTTTATTATCAAAACATGCATTTTTTAAATGGAA [TGCATGCA_site557]”, 8.11 ± 0.35; under “TAATGAAATATACAGAGTACATTCTGTATATAGGAT [XGTACX_site7691]”, 8.93 ± 0.42.
Under “TATATATGTATATATATAAATATATATATATATATA [TGCATGCA_negctrl_site605]” stands 9.26 ± 0.22.
“GCATAAGAAAATAATTGTACAATTTACATACATAAA [XGTACX_site8286]”: the “gcPBM binding intensity (ln)” value was 8.78 ± 0.52.
With “TACTCAAAAATTAATTAGCATAATATATATAAAAAT [GTGCAC_negctrl_site613]”, the “gcPBM binding intensity (ln)” value stood at 8.49 ± 0.45.
In the case of “TATAAATATATATACACACACACATTAATACATATA [CACACA_site3488]” it was 9.76 ± 0.28; in that of “TTAAGAAGTTCTAAATGTACATACATAACCACGTTA [XGTACX_site7514]”, 8.62 ± 0.33.
Under “ATAATATTTTCTTCTTATTGAATGCTTTAAATTTAC [CACACA_negctrl_site1273]” stands 8.62 ± 0.5; under “GGGAAATATTGAAACACACACGAACGCACGTATTTC [CACACA_site6258]”, 9.31 ± 0.26; under “TTAAACCGTGGGAGCACACACACACCCCCACCCATA [CACACA_site331]”, 10.1 ± 0.17.
“ACAAATAAGTTTTGTAGTACTGTGTATATATATATA [XGTACX_site6901]”: the “gcPBM binding intensity (ln)” value came out at 9.21 ± 0.35.
In the case of “TTTGTATATTATTTTAGTACATAACATTGAAGATAT [XGTACX_site6680]” it was 8.49 ± 0.39.
Under “ATATAAGGATTAATATGTACATATATATATATATTT [XGTACX_site1390]” stands 8.95 ± 0.42; under “TATTTTGAAACTAAAAGACATAGAGAAAACAAAAAA [CACACA_negctrl_site1306]”, 8.54 ± 0.43; under “AAATAATGTTTGAATTGTACACATATTTGTGTTTCT [XGTACX_site4603]”, 9.01 ± 0.52.
With “ATGTTGCACAGTGGAAGAATTAAAAATAAATAAATA [XGTACX_negctrl_site581]”, the “gcPBM binding intensity (ln)” value was 8.65 ± 0.72.
In the case of “GTGGAACGTATATTTTCACACACTCTCAAAAGTACA [CACACA_site8722]” it was 8.93 ± 0.47.
As to “GTGGAACATATGAACTCACACACATTTTCACTTAAA [CACACA_site3683]”, the “gcPBM binding intensity (ln)” value worked out at 9.15 ± 0.45.
Consider “ATGAACATATCAATTCTCAAAATAGGATGAGAGCAT [CACACA_negctrl_site230]”, for which the “gcPBM binding intensity (ln)” value was 8.87 ± 0.52.
Regarding “AATTTTTGTATTTTTAGTACTTAATTTCAAAATAAC [XGTACX_site4234]”, the “gcPBM binding intensity (ln)” value turned out to be 8.38 ± 0.36.
Under “AATATTATAAATGTCACACATATATTCAAATATATA [CACACA_site4736]” stands 8.62 ± 0.37; under “TTATAGAAAATGGAATAGAATGGAATGGAAGAAATA [CACACA_negctrl_site1086]”, 8.72 ± 0.49; under “ATTATATATAAGAAGAGTACTGAATATGTGCAATAT [XGTACX_site4471]”, 8.88 ± 0.32.
On to “TATATACACCCACATACACACAAATAAAAAAACACC [CACACA_site3414]”, for which the “gcPBM binding intensity (ln)” value came to 9.64 ± 0.31.
In the case of “GACATTGATACCAGTAGTACCTATAGATGTTTGTTT [XGTACX_site5736]” it was 8.99 ± 0.42; in that of “TTATGGAATAATCACGTACACACAAGAAAAAAAAAA [CACACA_site526]”, 9.07 ± 0.46; in that of “ATGGTACATACATACACACACACAAAAAAAAAAAAA [CACACA_site1578]”, 9.8 ± 0.67.
With “GTTCAATTTTTAGGAAGTACAAAAAAAAAAAAGAAA [XGTACX_site7286]”, the “gcPBM binding intensity (ln)” value stood at 8.44 ± 0.6.
Take “CAAACCTATATACAAACATGCAATCCACATATTGGT [TGCATGCA_site756]”: the “gcPBM binding intensity (ln)” value was found to be 8.97 ± 0.4.
Under “TATATTAGTGTTGACACACACAAAAAAAAAAAAAAA [CACACA_site1396]” stands 8.98 ± 0.4; under “TATATTTGTATTGTTTGTACTTATATGAATTTATAT [XGTACX_site4228]”, 8.9 ± 0.45; under “TAATGAAATTGTAGTAGTACCTTCTTATAAATAAAA [XGTACX_site6747]”, 8.32 ± 0.53.
Turning to “TCACCTATTTTTAACTGTACTGAAATGATATATATA [XGTACX_site1366]”, the “gcPBM binding intensity (ln)” value stood at 8.71 ± 0.29.
For “TATAAAAAAAAAAAATATATATATATATAAATATAA [TGCATGCA_negctrl_site367]”, the “gcPBM binding intensity (ln)” value is 8.65 ± 0.37.
Under “TAAAAATATTTTCATTGTACATATATATAAATATAT [XGTACX_site1123]” stands 8.56 ± 0.42.
With “TAAGAAAAAAAAAAAAAAAAAAAAAAAAAAAAAAAA [CACACA_negctrl_site760]”, the “gcPBM binding intensity (ln)” value is 8.125 ± 0.021.
Regarding “ATTTGTTACGGACATGCATGCGAATCAGGGTATATA [TGCATGCA_site154]”, the “gcPBM binding intensity (ln)” value turned out to be 9.06 ± 0.28.
Take “TACATATATATATATATATATATATATATCATTATG [XGTACX_negctrl_site293]”: the “gcPBM binding intensity (ln)” value was 9.55 ± 0.18.
With “TTGAGGAAATAACAGTGTACAAACAAATTATTACCA [XGTACX_site7082]”, the “gcPBM binding intensity (ln)” value was 9 ± 0.55.
For the sequence “TTTGTGATATTATATTGTACCCTATATTTATTATAA [XGTACX_site4240]”, the “gcPBM binding intensity (ln)” value worked out at 8.8 ± 0.46.
On to “GAATGGACGTTAGGGGGTACGTATAAAATTTATCAA [XGTACX_site683]”, for which the “gcPBM binding intensity (ln)” value worked out at 8.93 ± 0.2.
Take “TTTATTGACAATTTATGTACATATAATTGAAAAATA [XGTACX_site6634]”: the “gcPBM binding intensity (ln)” value was determined as 8.43 ± 0.46.
Regarding “ACATGTAAATGGAAAAGTACTAATAACTTGTATTGG [XGTACX_site5181]”, the “gcPBM binding intensity (ln)” value came out at 8.97 ± 0.52.
Take “ATTATTTGTTTAAATTCACACACGTATATATATTTA [CACACA_site3050]”: the “gcPBM binding intensity (ln)” value was 9.15 ± 0.37.
With “ATAGAAATATTATATTGTACGAACAGTTATTAACAA [XGTACX_site2137]”, the “gcPBM binding intensity (ln)” value was determined as 8.64 ± 0.45.
Under “TAATTATTAAAACATTGTACATTATTATAAACAATT [XGTACX_site4489]” stands 8.41 ± 0.52; under “TTATTTTAATATAAAATACACACTACTATTATAAAT [CACACA_site1470]”, 8.52 ± 0.4; under “ATATATAAATATATTACACACTTTTTCTTTTTTTTT [CACACA_site7332]”, 8.71 ± 0.49.
On to “TATTACATACAATATTGTACATATCATATTTTGAAT [XGTACX_site2191]”, for which the “gcPBM binding intensity (ln)” value worked out at 8.92 ± 0.41.
Under ACGGAAAAAGAAAAGGTGCATATGGACACAATATAT stands 9.24 ± 0.58; under “CTTATATTAATTATTACACACATATTTATAAATGCA [CACACA_site6501]”, 8.93 ± 0.29.

(Values after the supplement of paper PMC11417369.)
